These results are taken from the supplement of paper PMC7125110.

± gives the standard error. For some assays here: Variants at the floor of the assay are shown more often than the library holds them.

B1: glmS ribozyme (parent)
chain: AUAAAAGCGCCAGAACUACAGAAAUGUAGUUGACGAGGAGGAGGUUUAUCGAAUUUUCGGCGGAUGCCUCCAAA

Common to all, as to conditions: with glucosamine-6-phosphate
Data set [1] covers variants of B1. Description: self-cleavage kobs at 40 uM GlcN6P; higher = faster cleavage; RNA array. In a few lines:
(§1)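 Ribozyme variants carrying barcodes were transcribed in situ on sequenced MiSeq chips by E. coli RNA polymerase and tracked at 37 °C with a hybridised Cy3 probe. They were exposed to 40 μM to 10 mM glucosamine-6-phosphate in HEPES/KCl/Mg(OAc)2 buffer. kobs came from exponential decay fits of normalised per-tile medians, and kcat and KM from weighted Michaelis–Menten fits.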

Data set [2] covers variants of B1. In words: self-cleavage kobs at 640 uM GlcN6P; higher = faster cleavage; RNA array. An outline of the steps:
as §1

Variants of B1 are the subject of data set [3]. Description: self-cleavage kobs at 2500 uM GlcN6P; higher = faster cleavage; RNA array. In a few lines:
as §1

Variants of B1 are the subject of data set [4]. Description: self-cleavage kobs at 10000 uM GlcN6P; higher = faster cleavage; RNA array. In a few lines:
as §1

In data set [5] the parent is B1. Description: self-cleavage kobs at 160 uM GlcN6P; higher = faster cleavage; RNA array. An outline of the steps:
as §1

Data set [6] covers variants of B1. In words: kcat; higher = faster cleavage; RNA array. In a few lines:
as §1

As to A6C C34G, the “self-cleavage kobs at 40 uM GlcN6P” value with glucosamine-6-phosphate [1] was under 1e-05 s⁻¹. Also, the “self-cleavage kobs at 640 uM GlcN6P” value with glucosamine-6-phosphate [2] was under 1e-05 s⁻¹. Besides, the “self-cleavage kobs at 2500 uM GlcN6P” value with glucosamine-6-phosphate [3] was under 1e-05 s⁻¹. The “self-cleavage kobs at 10000 uM GlcN6P” value in the data set with glucosamine-6-phosphate [4] is under 1e-05 s⁻¹.

For the variant A6G C10A G13A G62A U65A, the “self-cleavage kobs at 40 uM GlcN6P” value in the data set with glucosamine-6-phosphate [1] was under 1e-05 s⁻¹.

As for A6G C8U U54G C68G, the “self-cleavage kobs at 40 uM GlcN6P” value with glucosamine-6-phosphate [1] was 0.000149 ± 5.2e-05 s⁻¹. Further, in the data set with glucosamine-6-phosphate [2], the “self-cleavage kobs at 640 uM GlcN6P” value stood at 0.000705 ± 0.00028 s⁻¹. The “self-cleavage kobs at 10000 uM GlcN6P” value with glucosamine-6-phosphate [4] was 7.88e-05 ± 2.2e-05 s⁻¹.

A6G A36G: the “self-cleavage kobs at 40 uM GlcN6P” value with glucosamine-6-phosphate [1] is under 1e-05 s⁻¹. The “self-cleavage kobs at 640 uM GlcN6P” value with glucosamine-6-phosphate [2] is under 1e-05 s⁻¹.

A6G A12C C71A: the “self-cleavage kobs at 40 uM GlcN6P” value with glucosamine-6-phosphate [1] is under 1e-05 s⁻¹.

A6G C50G A64U: the “self-cleavage kobs at 40 uM GlcN6P” value with glucosamine-6-phosphate [1] turned out to be 7.9e-05 ± 3.2e-05 s⁻¹. For the same variant, the “self-cleavage kobs at 10000 uM GlcN6P” value with glucosamine-6-phosphate [4] amounted to 0.000157 ± 2.5e-05 s⁻¹.

As for A6C U56A C58G, in the data set with glucosamine-6-phosphate [1], the “self-cleavage kobs at 40 uM GlcN6P” value was under 1e-05 s⁻¹. For the same variant, the “self-cleavage kobs at 10000 uM GlcN6P” value with glucosamine-6-phosphate [4] is under 1e-05 s⁻¹.

As to A6G A15U C16G A53G C61G G63A, the “self-cleavage kobs at 40 uM GlcN6P” value with glucosamine-6-phosphate [1] was under 1e-05 s⁻¹.

Consider A6C C34U G43A, for which the “self-cleavage kobs at 40 uM GlcN6P” value with glucosamine-6-phosphate [1] is under 1e-05 s⁻¹.

Consider A6C G32A U69A, for which, in the data set with glucosamine-6-phosphate [1], the “self-cleavage kobs at 40 uM GlcN6P” value was under 1e-05 s⁻¹.

Take A6G A36C C71U: the “self-cleavage kobs at 40 uM GlcN6P” value with glucosamine-6-phosphate [1] is under 1e-05 s⁻¹. Moreover, the “self-cleavage kobs at 10000 uM GlcN6P” value with glucosamine-6-phosphate [4] was under 1e-05 s⁻¹.

A6C A48G C70U: the “self-cleavage kobs at 40 uM GlcN6P” value with glucosamine-6-phosphate [1] was under 1e-05 s⁻¹. Moreover, in the data set with glucosamine-6-phosphate [4], the “self-cleavage kobs at 10000 uM GlcN6P” value was under 1e-05 s⁻¹.

Regarding A6G C8U G35C A48G, the “self-cleavage kobs at 40 uM GlcN6P” value in the data set with glucosamine-6-phosphate [1] is under 1e-05 s⁻¹. Moreover, in the data set with glucosamine-6-phosphate [4], the “self-cleavage kobs at 10000 uM GlcN6P” value was under 1e-05 s⁻¹.

On to A6G C10U A39U, for which the “self-cleavage kobs at 40 uM GlcN6P” value with glucosamine-6-phosphate [1] was under 1e-05 s⁻¹. Besides, the “self-cleavage kobs at 160 uM GlcN6P” value in the data set with glucosamine-6-phosphate [5] was under 1e-05 s⁻¹. The “self-cleavage kobs at 2500 uM GlcN6P” value with glucosamine-6-phosphate [3] is under 1e-05 s⁻¹. For the same variant, the “self-cleavage kobs at 10000 uM GlcN6P” value with glucosamine-6-phosphate [4] was under 1e-05 s⁻¹.

In the case of C61G G66A, in the data set with glucosamine-6-phosphate [6], the kcat (usually the maximal rate divided by the concentration of active sites) is under 1e-05 s⁻¹. In the data set with glucosamine-6-phosphate [1], the “self-cleavage kobs at 40 uM GlcN6P” value was under 1e-05 s⁻¹.

A6C G41C: the “self-cleavage kobs at 40 uM GlcN6P” value with glucosamine-6-phosphate [1] is under 1e-05 s⁻¹. In addition, the “self-cleavage kobs at 640 uM GlcN6P” value with glucosamine-6-phosphate [2] was under 1e-05 s⁻¹. For the same variant, in the data set with glucosamine-6-phosphate [3], the “self-cleavage kobs at 2500 uM GlcN6P” value was under 1e-05 s⁻¹. The “self-cleavage kobs at 10000 uM GlcN6P” value in the data set with glucosamine-6-phosphate [4] was under 1e-05 s⁻¹.

Turning to A6C G7A A64C G66C, the “self-cleavage kobs at 40 uM GlcN6P” value with glucosamine-6-phosphate [1] is under 1e-05 s⁻¹.

For the variant G60A U65G, in the data set with glucosamine-6-phosphate [6], the kcat is under 1e-05 s⁻¹. Also, the “self-cleavage kobs at 640 uM GlcN6P” value with glucosamine-6-phosphate [2] is under 1e-05 s⁻¹.

Take A6G C11U G32U U47A A52G C68G: in the data set with glucosamine-6-phosphate [1], the “self-cleavage kobs at 40 uM GlcN6P” value is under 1e-05 s⁻¹. Further, in the data set with glucosamine-6-phosphate [3], the “self-cleavage kobs at 2500 uM GlcN6P” value was under 1e-05 s⁻¹.

Turning to A6C G29U G32A U57A, the “self-cleavage kobs at 40 uM GlcN6P” value with glucosamine-6-phosphate [1] is under 1e-05 s⁻¹. Further, the “self-cleavage kobs at 640 uM GlcN6P” value with glucosamine-6-phosphate [2] is under 1e-05 s⁻¹. Moreover, the “self-cleavage kobs at 10000 uM GlcN6P” value in the data set with glucosamine-6-phosphate [4] was under 1e-05 s⁻¹.

With A6C G7U A15U U45G A64U C68A, the “self-cleavage kobs at 40 uM GlcN6P” value with glucosamine-6-phosphate [1] is under 1e-05 s⁻¹. Also, the “self-cleavage kobs at 10000 uM GlcN6P” value with glucosamine-6-phosphate [4] is under 1e-05 s⁻¹.

Take A6G C8G G13U: in the data set with glucosamine-6-phosphate [1], the “self-cleavage kobs at 40 uM GlcN6P” value was under 1e-05 s⁻¹.

For A6G C34G, the “self-cleavage kobs at 40 uM GlcN6P” value with glucosamine-6-phosphate [1] was under 1e-05 s⁻¹. The “self-cleavage kobs at 640 uM GlcN6P” value with glucosamine-6-phosphate [2] was under 1e-05 s⁻¹. The “self-cleavage kobs at 10000 uM GlcN6P” value with glucosamine-6-phosphate [4] was under 1e-05 s⁻¹.

For the variant A6C G7U A12U A15U, in the data set with glucosamine-6-phosphate [1], the “self-cleavage kobs at 40 uM GlcN6P” value is under 1e-05 s⁻¹. The “self-cleavage kobs at 10000 uM GlcN6P” value with glucosamine-6-phosphate [4] was under 1e-05 s⁻¹.

Consider C61A G62A, for which the kcat with glucosamine-6-phosphate [6] was under 1e-05 s⁻¹. In addition, the “self-cleavage kobs at 40 uM GlcN6P” value with glucosamine-6-phosphate [1] is under 1e-05 s⁻¹.

A6C A39U U56A A64G: the “self-cleavage kobs at 40 uM GlcN6P” value in the data set with glucosamine-6-phosphate [1] was under 1e-05 s⁻¹.

A6G A42C C71U: the “self-cleavage kobs at 40 uM GlcN6P” value in the data set with glucosamine-6-phosphate [1] is under 1e-05 s⁻¹. Besides, the “self-cleavage kobs at 640 uM GlcN6P” value with glucosamine-6-phosphate [2] was under 1e-05 s⁻¹.

In the case of C61U C68U, the kcat with glucosamine-6-phosphate [6] is under 1e-05 s⁻¹. Also, in the data set with glucosamine-6-phosphate [4], the “self-cleavage kobs at 10000 uM GlcN6P” value is under 1e-05 s⁻¹.

For A1U U2G A3G A5U A6C G7C C8A G9U C10A C11A, in the data set with glucosamine-6-phosphate [1], the “self-cleavage kobs at 40 uM GlcN6P” value is under 1e-05 s⁻¹. Moreover, the “self-cleavage kobs at 640 uM GlcN6P” value with glucosamine-6-phosphate [2] is under 1e-05 s⁻¹. In addition, the “self-cleavage kobs at 160 uM GlcN6P” value in the data set with glucosamine-6-phosphate [5] was under 1e-05 s⁻¹. Also, in the data set with glucosamine-6-phosphate [3], the “self-cleavage kobs at 2500 uM GlcN6P” value was under 1e-05 s⁻¹. In the data set with glucosamine-6-phosphate [4], the “self-cleavage kobs at 10000 uM GlcN6P” value is under 1e-05 s⁻¹.
